# The other results are listed elsewhere or left out.
# B1: HPA (Helix pomatia), Q2F1K8 (protein)
# chain: MQAFYSGLLLLCVVAFAAAQRVQSGKIDCGNDAGWAKVPSDDPGRDNTRELAKNITFASPYCRPPVVLLSITQLDVEQSQNLRVIARLYSVSPTGFKASCYTWHNTKVYSMSISWISIENY
# Columns and labels:
# Experiment in all cases: glycan array binding signal (z-score within array); higher = stronger binding
# Settings in all cases: glycan notation: IUPAC condensed, linker removed
# [1] = target: Man(a1-3)[Man(a1-6)]Man(b1-4)GlcNAc(b1-4)GlcNAc
# Outline: (§1)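 From the Consortium for Functional Glycomics database, 3228 arrays were curated, keeping only those whose protein sequence was available. Binding is given as a within-array Z-score averaged across arrays sharing a protein sequence and across linkers. Negative Z-scores can be read as non-binding.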
# [2] = target: Man(a1-3)[Man(a1-6)]Man(b1-4)GlcNAc(b1-4)[Fuc(a1-6)]GlcNAc
# Outline: as §1
# [3] = target: Man(a1-6)Man
# Outline: as §1
# [4] = target: Man(b1-4)GlcNAc
# Outline: as §1
# [5] = target: MurNAc(b1-4)GlcNAc
# Outline: as §1
# [6] = target: Neu5Ac(a2-3)Gal
# Outline: as §1
# [7] = target: Neu5Ac(a2-3)Gal(b1-3)GalNAc
# Outline: as §1
# [8] = target: Neu5Ac(a2-3)Gal(b1-3)GalNAc(b1-3)Gal(a1-4)Gal(b1-4)Glc
# Outline: as §1
# [9] = target: Neu5Ac(a2-3)Gal(b1-3)GalNAc(b1-3)Gal(b1-4)GlcNAc
# Outline: as §1
# [10] = target: Neu5Ac(a2-3)Gal(b1-3)GalNAc(b1-4)[Neu5Ac(a2-3)]Gal(b1-4)Glc
# Outline: as §1
# [11] = target: Neu5Ac(a2-3)Gal(b1-3)GalNAc(b1-4)[Neu5Ac(a2-8)Neu5Ac(a2-3)]Gal(b1-4)Glc
# Outline: as §1
# [12] = target: Neu5Ac(a2-3)Gal(b1-3)GalNAc6S
# Outline: as §1
# [13] = target: Neu5Ac(a2-3)Gal(b1-3)GlcNAc
# Outline: as §1
# [14] = target: Neu5Ac(a2-3)Gal(b1-3)GlcNAc(b1-2)Man
# Outline: as §1
# [15] = target: Neu5Ac(a2-3)Gal(b1-3)GlcNAc(b1-2)Man(a1-3)[GlcNAc(b1-4)][Neu5Ac(a2-3)Gal(b1-3)GlcNAc(b1-2)Man(a1-6)]Man(b1-4)GlcNAc(b1-4)GlcNAc
# Outline: as §1
# [16] = target: Neu5Ac(a2-3)Gal(b1-3)GlcNAc(b1-2)Man(a1-3)[Neu5Ac(a2-3)Gal(b1-3)GlcNAc(b1-2)Man(a1-6)]Man(b1-4)GlcNAc(b1-4)GlcNAc
# Outline: as §1
# [17] = target: Neu5Ac(a2-3)Gal(b1-3)GlcNAc(b1-3)Gal(b1-3)GlcNAc
# Outline: as §1
# [18] = target: Neu5Ac(a2-3)Gal(b1-3)GlcNAc(b1-3)Gal(b1-4)GlcNAc
# Outline: as §1
# [19] = target: Neu5Ac(a2-3)Gal(b1-3)GlcNAc(b1-3)GalNAc
# Outline: as §1
# [20] = target: Neu5Ac(a2-3)Gal(b1-3)GlcNAc(b1-4)Gal(b1-4)Glc
# Outline: as §1
# [21] = target: Neu5Ac(a2-3)Gal(b1-3)GlcNAc(b1-6)GalNAc
# Outline: as §1
# [22] = target: Neu5Ac(a2-3)Gal(b1-3)GlcNAc6S
# Outline: as §1
# [23] = target: Neu5Ac(a2-3)Gal(b1-3)[Fuc(a1-4)]GlcNAc
# Outline: as §1
# [24] = target: Neu5Ac(a2-3)Gal(b1-3)[Fuc(a1-4)]GlcNAc(b1-3)Gal(b1-3)[Fuc(a1-4)]GlcNAc
# Outline: as §1
# [25] = target: Neu5Ac(a2-3)Gal(b1-3)[Fuc(a1-4)]GlcNAc(b1-3)Gal(b1-4)[Fuc(a1-3)]GlcNAc
# Outline: as §1
# [26] = target: Neu5Ac(a2-3)Gal(b1-3)[GlcNAc(b1-6)]GalNAc
# Outline: as §1
# [27] = target: Neu5Ac(a2-3)Gal(b1-3)[Neu5Ac(a2-3)Gal(b1-4)]GlcNAc
# Outline: as §1
# [28] = target: Neu5Ac(a2-3)Gal(b1-3)[Neu5Ac(a2-6)]GalNAc
# Outline: as §1
# [29] = target: Neu5Ac(a2-3)Gal(b1-3)[Neu5Ac(a2-6)]GlcNAc(b1-3)[Fuc(a1-3)[Gal(b1-4)]GlcNAc(b1-6)]Gal(b1-4)Glc
# Outline: as §1
# [30] = target: Neu5Ac(a2-3)Gal(b1-3)]Neu5Ac(a2-3)Gal(b1-4)]GlcNAc
# Outline: as §1
# [31] = target: Neu5Ac(a2-3)Gal(b1-4)Glc
# Outline: as §1
# [32] = target: Neu5Ac(a2-3)Gal(b1-4)GlcNAc
# Outline: as §1
# [33] = target: Neu5Ac(a2-3)Gal(b1-4)GlcNAc(b1-2)Man
# Outline: as §1
# [34] = target: Neu5Ac(a2-3)Gal(b1-4)GlcNAc(b1-2)Man(a1-3)[GlcNAc(b1-2)Man(b1-4)GlcNAc(b1-2)Man(a1-6)]Man(b1-4)GlcNAc(b1-4)GlcNAc
# Outline: as §1
# [35] = target: Neu5Ac(a2-3)Gal(b1-4)GlcNAc(b1-2)Man(a1-3)[GlcNAc(b1-4)][Neu5Ac(a2-3)Gal(b1-4)GlcNAc(b1-2)Man(a1-6)]Man(b1-4)GlcNAc(b1-4)GlcNAc
# Outline: as §1
# [36] = target: Neu5Ac(a2-3)Gal(b1-4)GlcNAc(b1-2)Man(a1-3)[Neu5Ac(a2-3)Gal(b1-4)GlcNAc(b1-2)Man(a1-6)]Man(b1-4)GlcNAc(b1-4)GlcNAc
# Outline: as §1
# [37] = target: Neu5Ac(a2-3)Gal(b1-4)GlcNAc(b1-2)Man(a1-3)[Neu5Ac(a2-3)Gal(b1-4)GlcNAc(b1-2)Man(a1-6)]Man(b1-4)GlcNAc(b1-4)[Fuc(a1-6)]GlcNAc
# Outline: as §1
# [38] = target: Neu5Ac(a2-3)Gal(b1-4)GlcNAc(b1-2)Man(a1-3)[Neu5Ac(a2-6)Gal(b1-4)GlcNAc(b1-2)Man(a1-6)]Man(b1-4)GlcNAc(b1-4)GlcNAc
# Outline: as §1
# [39] = target: Neu5Ac(a2-3)Gal(b1-4)GlcNAc(b1-2)[Neu5Ac(a2-3)Gal(b1-4)GlcNAc(b1-4)]Man(a1-3)[GlcNAc(b1-4)][Neu5Ac(a2-3)Gal(b1-4)GlcNAc(b1-2)[Neu5Ac(a2-3)Gal(b1-4)GlcNAc(b1-6)]Man(a1-6)]Man(b1-4)GlcNAc(b1-4)GlcNAc
# Outline: as §1
# [40] = target: Neu5Ac(a2-3)Gal(b1-4)GlcNAc(b1-2)[Neu5Ac(a2-3)Gal(b1-4)GlcNAc(b1-4)]Man(a1-3)[GlcNAc(b1-4)][Neu5Ac(a2-3)Gal(b1-4)GlcNAc(b1-4)Man(a1-6)]Man(b1-4)GlcNAc(b1-4)GlcNAc
# Outline: as §1
# [41] = target: Neu5Ac(a2-3)Gal(b1-4)GlcNAc(b1-2)[Neu5Ac(a2-3)Gal(b1-4)GlcNAc(b1-6)]Man(a1-6)[Neu5Ac(a2-3)Gal(b1-4)GlcNAc(b1-2)Man(a1-3)]Man(b1-4)GlcNAc(b1-4)GlcNAc
# Outline: as §1
# [42] = target: Neu5Ac(a2-3)Gal(b1-4)GlcNAc(b1-2)[Neu5Ac(a2-3)Gal(b1-4)GlcNAc(b1-6)]Man(a1-6)[Neu5Ac(a2-3)Gal(b1-4)GlcNAc(b1-2)Man(a1-3)][GlcNAc(b1-4)]Man(b1-4)GlcNAc(b1-4)GlcNAc
# Outline: as §1
# [43] = target: Neu5Ac(a2-3)Gal(b1-4)GlcNAc(b1-3)Gal
# Outline: as §1
# [44] = target: Neu5Ac(a2-3)Gal(b1-4)GlcNAc(b1-3)Gal(b1-3)GlcNAc
# Outline: as §1
# [45] = target: Neu5Ac(a2-3)Gal(b1-4)GlcNAc(b1-3)Gal(b1-4)GlcNAc
# Outline: as §1
binder,measurement,setting,value
B1,glycan array binding signal (z-score),[1],-0.19
same,glycan array binding signal (z-score),[2],-0.071
same,glycan array binding signal (z-score),[3],-0.11
same,glycan array binding signal (z-score),[4],-0.144
same,glycan array binding signal (z-score),[5],-0.319
same,glycan array binding signal (z-score),[6],-0.244
same,glycan array binding signal (z-score),[7],0.033
same,glycan array binding signal (z-score),[8],-0.079
same,glycan array binding signal (z-score),[9],-0.061
same,glycan array binding signal (z-score),[10],-0.295
same,glycan array binding signal (z-score),[11],-0.121
same,glycan array binding signal (z-score),[12],-0.272
same,glycan array binding signal (z-score),[13],-0.209
same,glycan array binding signal (z-score),[14],0.088
same,glycan array binding signal (z-score),[15],-0.147
same,glycan array binding signal (z-score),[16],-0.195
same,glycan array binding signal (z-score),[17],-0.156
same,glycan array binding signal (z-score),[18],-0.311
same,glycan array binding signal (z-score),[19],-0.239
same,glycan array binding signal (z-score),[20],-0.252
same,glycan array binding signal (z-score),[21],-0.332
same,glycan array binding signal (z-score),[22],-0.281
same,glycan array binding signal (z-score),[23],-0.359
same,glycan array binding signal (z-score),[24],-0.09
same,glycan array binding signal (z-score),[25],-0.105
same,glycan array binding signal (z-score),[26],-0.351
same,glycan array binding signal (z-score),[27],-0.415
same,glycan array binding signal (z-score),[28],-0.163
same,glycan array binding signal (z-score),[29],-0.215
same,glycan array binding signal (z-score),[30],-0.307
same,glycan array binding signal (z-score),[31],-0.004
same,glycan array binding signal (z-score),[32],-0.167
same,glycan array binding signal (z-score),[33],-0.116
same,glycan array binding signal (z-score),[34],-0.501
same,glycan array binding signal (z-score),[35],-0.3
same,glycan array binding signal (z-score),[36],-0.287
same,glycan array binding signal (z-score),[37],-0.312
same,glycan array binding signal (z-score),[38],-0.303
same,glycan array binding signal (z-score),[39],-0.275
same,glycan array binding signal (z-score),[40],-0.301
same,glycan array binding signal (z-score),[41],-0.227
same,glycan array binding signal (z-score),[42],-0.361
same,glycan array binding signal (z-score),[43],-0.425
same,glycan array binding signal (z-score),[44],-0.259
same,glycan array binding signal (z-score),[45],-0.335
